Structures are written as SMILES. This is one part of the list. Many values rest on one well or one pass, so single values are uncertain.

24 compounds from the supplement of paper PMC4604168 (melanoma cell lines) can be followed below.

Some test systems named below: WM115; WM1716; WM1745; WM3526; WM3619; WM451Lu.
Holding throughout (assay): cell count relative to DMSO control; melanoma cells; higher = more viable cells
What all share (conditions): library dose: low library concentration; 72 h
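Also: cell number obtained by counting DAPI-stained nuclei in high-throughput microscope images with image analysis software, screen run in 1,536-well plates.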

In the case of `CS(=O)(=O)CCNCc1ccc(-c2ccc3ncnc(Nc4ccc(OCc5cccc(F)c5)c(Cl)c4)c3c2)o1` [lapatinib] + OCCn1cc(-c2cnc3nnn(Cc4ccc5ncccc5c4)c3n2)cn1 [PF04217903] (first compound 0.8 µM, partner dose 1 µM), the cell count in the experiment with WM115 was 104%; in the experiment with WM1716 it was 102%; in the experiment on WM1745, 81%; with WM3526, 89.3%; in the experiment with WM3619, 113%; in the experiment with WM451Lu, 103%.
As to `CS(=O)(=O)CCNCc1ccc(-c2ccc3ncnc(Nc4ccc(OCc5cccc(F)c5)c(Cl)c4)c3c2)o1` [lapatinib] + O=c1cc(-c2cccc3c2Sc2ccccc2S3)oc(N2CCOCC2)c1 [KU55933] (first compound 0.8 µM, partner dose 1 µM), the cell count stood at 96.4% in the experiment on WM115; 110% in the experiment on WM1716; 97.6% in the experiment on WM1745; 78.2% with WM3526; 96% with WM3619; 95.5% in the experiment on WM451Lu.
On to `C=CCNC1=C2C[C@@H](C)C[C@H](OC)[C@H](O)[C@@H](C)/C=C(\C)[C@H](OC(N)=O)[C@@H](OC)/C=C\C=C(/C)C(=O)NC(=CC1=O)C2=O` [Tanespimycin] + Cn1nnc2c(C(N)=O)ncn2c1=O [temozolomide] (first compound 0.002 µM, partner dose 2 µM), for which the cell count in the experiment on WM115 came out at 89.8%; in the experiment on WM1716, 96.6%; in the experiment on WM1745, 84.6%; with WM3526, 78.2%; in the experiment on WM3619 it was 71.5%; with WM451Lu, 90.6%.
`CN1CCN(c2ccc3nc(-c4c(N)c5c(F)cccc5[nH]c4=O)[nH]c3c2)CC1` [Dovitinib] + COc1ccc2c(c1)CCC1C2CCC2(C)C(NCCCCCCN3C(=O)C=CC3=O)CCC12 [U73122] (first compound 0.1 µM, partner dose 0.4 µM): the cell count in the experiment with WM115 worked out at 101%; with WM1716 it was 86.8%; in the experiment on WM1745, 104%; in the experiment with WM3526 it was 112%; in the experiment with WM3619 it was 111%; with WM451Lu, 78.9%.
For the compound `CNC(=O)c1cc(Oc2ccc(NC(=O)Nc3ccc(Cl)c(C(F)(F)F)c3)cc2)ccn1` [sorafenib] + Clc1ccc(Nc2nnc(Cc3ccncc3)c3ccccc23)cc1 [vatalanib] (first compound 0.4 µM, partner dose 2 µM), the cell count in the experiment on WM115 is 104%; in the experiment with WM1716, 104%; with WM1745 it was 100%; in the experiment on WM3526, 77.6%; in the experiment on WM3619 it was 95.1%; in the experiment with WM451Lu it was 109%.
Take `C[C@@H](Oc1cc(-c2cnn(C3CCNCC3)c2)cnc1N)c1c(Cl)ccc(F)c1Cl` [Crizotinib] + c1cc(-c2cnn3cc(-c4ccc(OCCN5CCCCC5)cc4)cnc23)ccn1 [Dorsomorphin] (first compound 0.2 µM, partner dose 0.4 µM): the cell count with WM115 amounted to 90.2%; with WM1716, 108%; with WM1745 it was 70.5%; in the experiment with WM3526, 84.7%; in the experiment with WM3619, 109%; in the experiment with WM451Lu, 93.9%.
For `CN1CCN(c2ccc3nc(-c4c(N)c5c(F)cccc5[nH]c4=O)[nH]c3c2)CC1` [Dovitinib] + CCCCCCCCCCCC1=C(O)C(=O)C=C(O)C1=O [Embelin] (first compound 0.1 µM, partner dose 1.2 µM), the cell count with WM115 stood at 100%; in the experiment with WM1716, 110%; in the experiment on WM1745 it was 63.6%; in the experiment with WM3526, 95.8%; in the experiment with WM3619, 88.1%; in the experiment with WM451Lu it was 97.2%.
For the compound `C[C@@H](Oc1cc(-c2cnn(C3CCNCC3)c2)cnc1N)c1c(Cl)ccc(F)c1Cl` [Crizotinib] + CO[C@H]1C[C@@H]2CC[C@@H](C)[C@@](O)(O2)C(=O)C(=O)N2CCCC[C@H]2C(=O)O[C@H]([C@H](C)C[C@@H]2CC[C@@H](OCCO)[C@H](OC)C2)CC(=O)[C@H](C)/C=C(\C)[C@@H](O)[C@@H](OC)C(=O)[C@H](C)C[C@H](C)/C=C/C=C/C=C/1C [everolimus] (first compound 0.2 µM, partner dose 0.02 µM), the cell count turned out to be 73% in the experiment on WM115; 73.2% in the experiment with WM1716; 87.3% with WM1745; 68.3% in the experiment with WM3526; 73.6% with WM3619; 91.3% with WM451Lu.
On to `CN1CCN(c2ccc3nc(-c4c(N)c5c(F)cccc5[nH]c4=O)[nH]c3c2)CC1` [Dovitinib] + Clc1ccc(Nc2nnc(Cc3ccncc3)c3ccccc23)cc1 [vatalanib] (first compound 0.1 µM, partner dose 2 µM), for which the cell count with WM115 came out at 87.8%; in the experiment on WM1716 it was 93.1%; with WM1745, 77.2%; with WM3526 it was 79.1%; in the experiment with WM3619, 86.5%; in the experiment with WM451Lu, 81.3%.
For the compound `CNC(=O)c1cc(Oc2ccc(NC(=O)Nc3ccc(Cl)c(C(F)(F)F)c3)cc2)ccn1` [sorafenib] + O=S(=O)(c1ccccc1)N(CC(F)(F)F)c1ccc(C(O)(C(F)(F)F)C(F)(F)F)cc1 [T0901317] (first compound 0.4 µM, partner dose 1.4 µM), the cell count in the experiment on WM115 was determined as 102%; with WM1716, 96%; in the experiment on WM1745, 101%; with WM3526, 84.9%; with WM3619 it was 136%; in the experiment on WM451Lu, 90.1%.
Regarding `CS(=O)(=O)CCNCc1ccc(-c2ccc3ncnc(Nc4ccc(OCc5cccc(F)c5)c(Cl)c4)c3c2)o1` [lapatinib] + C=CCn1c(=O)c2cnc(Nc3ccc(N4CCN(C)CC4)cc3)nc2n1-c1cccc(C(C)(C)O)n1 [MK1775] (first compound 0.8 µM, partner dose 0.02 µM), the cell count with WM115 was 88.9%; with WM1716 it was 84%; with WM1745, 89.1%; in the experiment with WM3526, 103%; in the experiment with WM3619 it was 79.9%; in the experiment with WM451Lu it was 117%.
For `CS(=O)(=O)CCNCc1ccc(-c2ccc3ncnc(Nc4ccc(OCc5cccc(F)c5)c(Cl)c4)c3c2)o1` [lapatinib] + COC(=O)c1sccc1S(=O)(=O)Nc1ccc(Nc2ccccc2)cc1OC [GSK0660] (first compound 0.8 µM, partner dose 1 µM), the cell count is 104% in the experiment on WM115; 111% in the experiment on WM1716; 111% in the experiment on WM1745; 97.4% with WM3526; 98.2% in the experiment with WM3619; 97.8% in the experiment with WM451Lu.
As to `CNC(=O)c1cc(Oc2ccc(NC(=O)Nc3ccc(Cl)c(C(F)(F)F)c3)cc2)ccn1` [sorafenib] + Cn1c(Nc2ccc(C(F)(F)F)cc2)nc2cc(Oc3ccnc(-c4ncc(C(F)(F)F)[nH]4)c3)ccc21 [CHIR265] (first compound 0.4 µM, partner dose 0.08 µM), the cell count with WM115 is 66.4%; in the experiment with WM1716, 87.6%; in the experiment on WM1745, 69.8%; in the experiment with WM3526, 58.4%; with WM3619 it was 82.2%; in the experiment with WM451Lu, 101%.
In the case of `CN1CCN(c2ccc3nc(-c4c(N)c5c(F)cccc5[nH]c4=O)[nH]c3c2)CC1` [Dovitinib] + O=C(O)C(=O)Nc1sc2c(c1C(=O)O)CCNC2 [TCS401] (first compound 0.1 µM, partner dose 1.66667 µM), the cell count came out at 95.3% with WM115; 105% in the experiment on WM1716; 85.8% in the experiment on WM1745; 106% in the experiment with WM3526; 97.3% with WM3619; 101% with WM451Lu.
Regarding `CS(=O)(=O)CCNCc1ccc(-c2ccc3ncnc(Nc4ccc(OCc5cccc(F)c5)c(Cl)c4)c3c2)o1` [lapatinib] + Nc1ncn([C@H]2C[C@H](O)[C@@H](CO)O2)c(=O)n1 [decitabine] (first compound 0.8 µM, partner dose 0.1 µM), the cell count with WM115 worked out at 99.2%; with WM1716 it was 91.9%; in the experiment with WM1745, 106%; in the experiment with WM3526, 106%; in the experiment with WM3619, 83.5%; in the experiment with WM451Lu, 119%.
Turning to `CS(=O)(=O)CCNCc1ccc(-c2ccc3ncnc(Nc4ccc(OCc5cccc(F)c5)c(Cl)c4)c3c2)o1` [lapatinib] + O=C(O)C(=O)Nc1sc2c(c1C(=O)O)CCNC2 [TCS401] (first compound 0.8 µM, partner dose 1.66667 µM), the cell count amounted to 111% in the experiment with WM115; 112% in the experiment on WM1716; 87.7% in the experiment with WM1745; 95.3% with WM3526; 108% in the experiment on WM3619; 93.8% in the experiment on WM451Lu.
For the compound `CS(=O)(=O)CCNCc1ccc(-c2ccc3ncnc(Nc4ccc(OCc5cccc(F)c5)c(Cl)c4)c3c2)o1` [lapatinib] + Oc1cc(-c2nc(-c3ccccc3)[nH]c2-c2ccncc2)ccc1Cl [L779450] (first compound 0.8 µM, partner dose 0.2 µM), the cell count with WM115 was determined as 89.7%; with WM1716, 119%; in the experiment with WM1745, 91.1%; with WM3526, 76.8%; in the experiment on WM3619, 75.5%; in the experiment on WM451Lu, 108%.
For `C[C@@H](Oc1cc(-c2cnn(C3CCNCC3)c2)cnc1N)c1c(Cl)ccc(F)c1Cl` [Crizotinib] + CCc1ccc(CCOc2ccc(CC3SC(=O)NC3=O)cc2)nc1 [pioglitazone] (first compound 0.2 µM, partner dose 2 µM), the cell count in the experiment with WM115 was determined as 119%; with WM1716, 103%; with WM1745, 101%; in the experiment on WM3526, 96.6%; in the experiment with WM3619, 108%; in the experiment with WM451Lu, 65.6%.
`CNC(=O)c1cc(Oc2ccc(NC(=O)Nc3ccc(Cl)c(C(F)(F)F)c3)cc2)ccn1` [sorafenib] + COc1cc(Nc2ncc(F)c(Nc3ccc4c(n3)NC(=O)C(C)(C)O4)n2)cc(OC)c1OC [Tamatinib] (first compound 0.4 µM, partner dose 0.4 µM): the cell count is 100% in the experiment with WM115; 106% in the experiment with WM1716; 75.5% in the experiment on WM1745; 75.5% in the experiment with WM3526; 94.9% in the experiment with WM3619; 106% in the experiment on WM451Lu.
For `CNC(=O)c1cc(Oc2ccc(NC(=O)Nc3ccc(Cl)c(C(F)(F)F)c3)cc2)ccn1` [sorafenib] + O=C(O)C(=O)Nc1sc2c(c1C(=O)O)CCNC2 [TCS401] (first compound 0.4 µM, partner dose 1.66667 µM), the cell count was 100% with WM115; 70.7% in the experiment on WM1716; 91.5% in the experiment on WM1745; 89.5% in the experiment on WM3526; 94.2% in the experiment with WM3619; 96.4% in the experiment on WM451Lu.
Turning to `C=CCNC1=C2C[C@@H](C)C[C@H](OC)[C@H](O)[C@@H](C)/C=C(\C)[C@H](OC(N)=O)[C@@H](OC)/C=C\C=C(/C)C(=O)NC(=CC1=O)C2=O` [Tanespimycin] + C[C@@H]1CCN(C(=O)CC#N)C[C@@H]1N(C)c1ncnc2[nH]ccc12 [CP690550] (first compound 0.002 µM, partner dose 1 µM), the cell count with WM115 amounted to 93.7%; in the experiment on WM1716, 101%; with WM1745, 78.8%; in the experiment with WM3526, 95.3%; with WM3619, 93.4%; with WM451Lu, 98.8%.
`CN1CCN(c2ccc3nc(-c4c(N)c5c(F)cccc5[nH]c4=O)[nH]c3c2)CC1` [Dovitinib] + C#Cc1cccc(Nc2ncnc3cc(OCCOC)c(OCCOC)cc23)c1 [erlotinib] (first compound 0.1 µM, partner dose 0.8 µM): the cell count worked out at 104% in the experiment on WM115; 96.6% in the experiment with WM1716; 73.9% in the experiment on WM1745; 97.2% in the experiment with WM3526; 94.7% in the experiment on WM3619; 89.9% with WM451Lu.
As to `CN1CCN(c2ccc3nc(-c4c(N)c5c(F)cccc5[nH]c4=O)[nH]c3c2)CC1` [Dovitinib] + Cn1cc(/C=C2\C(=O)Nc3cccnc32)c2ccccc21 [GW441756] (first compound 0.1 µM, partner dose 0.4 µM), the cell count was determined as 92.9% with WM115; 140% in the experiment on WM1716; 81.5% in the experiment with WM1745; 94.6% with WM3526; 84.9% with WM3619; 108% in the experiment on WM451Lu.
With `CNC(=O)c1cc(Oc2ccc(NC(=O)Nc3ccc(Cl)c(C(F)(F)F)c3)cc2)ccn1` [sorafenib] + O=C(Nc1ccccc1)c1cc([N+](=O)[O-])ccc1Cl [GW9662] (first compound 0.4 µM, partner dose 2 µM), the cell count came out at 97.6% in the experiment on WM115; 91.8% in the experiment on WM1716; 92.2% with WM1745; 122% with WM3526; 105% in the experiment on WM3619; 99.5% in the experiment with WM451Lu.
